The full ranking holds about 33,000 sequences; the median of “E-score (-0.5 to 0.5)” is about -0.016, and the highest 2% start at about 0.31. This is one part of the list.
Each sequence was assayed against Cst6 (UniProt P40535) (assay: PBM E-score (8-mer binding enrichment) (E-score (-0.5 to 0.5)); higher = stronger / more preferred TF binding; most listed sequences are background and not binding sites). Conditions: protein concentration: 200 nM; construct: GST-DNA-binding domain.
Protocol: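 Universal 'all 10-mer' protein binding microarrays (Agilent AMADID 015681) probed with GST-tagged S. cerevisiae TFs (full-length or DBD) made by in vitro transcription/translation (PURExpress), about 100-200 nM. Bound TF was detected with fluorescent anti-GST. Each ungapped 8-mer (which stands for itself and its reverse complement) is scored by the PBM enrichment score (E-score), a modified Wilcoxon-Mann-Whitney statistic from -0.5 to +0.5, computed with the Universal PBM Analysis Suite. Scale: above 0.35 generally sequence-specific binding.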

Sequence | PBM E-score
CTTTGTGA | 0.0351
CCTTCTCA | -0.0671
AGCTTTGA | -0.0152
CGGAAGTC | -0.0996
ACCCGGCC | -0.237
AAAGAGTA | 0.174
CCGTAGTA | -0.0994
GGCTTCAA | -0.1
ATACTGAT | 0.268
GCTGAACA | -0.0724
CCTCGAAG | 0.0886
ATAAAGTC | 0.207
AGGTTATA | 0.0265
AGAAGGCT | -0.238
GGGAGTGA | 0.0473
CCTGACCC | -0.235
TACGGTAA | 0.264
CAGCGCTA | -0.0215
CTAACCAA | 0.0449
CAGGGTAC | -0.18
CAGCCGGC | -0.0906
AACCCGAT | 0.067

Sequence | PBM E-score
CTCTGAGC | -0.185
AAAGGACC | -0.185
GGTCCACA | -0.209
AACACTCG | 0.0139
CTGGCCCC | -0.294
CTACTGGC | -0.194
CTCCAGCA | -0.144
ATGACCAA | 0.189
AATAGCGC | 0.0638
AGTTAAAA | 0.26
GCCCCTAC | -0.153
GGATAGCC | -0.184
ACAAGGTA | -0.00222
CCGAACAC | -0.00678
GTAGTCAA | 0.14
CGGGAACC | -0.338
AAGTGTTC | 0.0462
AAGTATGA | 0.197
TCGTAAGA | 0.00239
GTGTAACA | 0.051
AAGAGAAT | 0.098
ATTGCTAC | -0.113

Sequence | PBM E-score
TCGACGCA | 0.0326
CATTAAGC | 0.00686
CTGTCATC | 0.186
GTATATAC | 0.0155
AAACTCCG | -0.128
ACCTTTAA | 0.0501
AAATGAGG | 0.0632
ATGTCGAC | 0.15
GCCTCGCC | -0.122
GTCATGAA | 0.268
AATGTGAT | 0.204
CTCGTCCA | 0.0723
AAGATCGA | 0.023
AGGGTGTA | -0.125
AGGCTACT | -0.187
AGCGCACC | -0.215
GATTCACC | -0.0601
GTCGACCA | -0.167
ACGGTCGC | -0.136
CAAGGTCC | -0.186
AGCTTTCG | -0.219
GCACAAGA | 0.115

Sequence | PBM E-score
TCCCGAGA | -0.0675
GTCACCAC | 0.373
ACCAACGA | -0.113
CTTTGGAC | 0.0595
CAAGCCTA | -0.148
ATTCTCGG | 0.0985
CACTAGCG | -0.0495
CCAGGGTA | -0.198
GCGGGCTA | -0.179
GATTACTA | 0.173
AAACCCCG | 0.00659
ACGAGCAT | -0.0556
CCGTACTA | 0.141
CATATCAC | 0.176
ATTGTAGC | 0.0304
AGGTATCA | -0.115
ATCTATCC | -0.00634
CCCACTCA | -0.104
CCTAGTTA | -0.0163
CATCGTAG | 0.00214
ACGCTTAC | -0.00275
ACGAGTCC | -0.167

Sequence | PBM E-score
GGCCATAC | -0.076
GGACCAAA | 0.0638
ACTAAGAA | 0.0236
AGGAACAA | -0.0886
TACATTGA | 0.192
TATGAGGA | 0.0397
AGTTCGGC | -0.00229
ACGTTACG | 0.279
TATCCCAA | 0.00913
ACGACACG | 0.0167
GTAACCCA | 0.193
AGACTTAG | -0.238
AACCGACC | -0.054
ATGCTGAG | -0.248
CAACGCAG | -0.272
GAATAACC | -0.112
GCCTGAAA | 0.127
GCGCACCC | -0.193
ACACACGG | -0.00142
CGTCGGAG | -0.154
GGGCGCCC | -0.0491

Source: the supplement of paper PMC3334620
